Variants at the background level are over-represented here. A value given as a limit tells only on which side of the number the result lay.

Sequences and labels used below:
B1: TPR 5TU (parent)
chain: GGAUCUUCUCGAUCUAACAAAAAAGACAAAUCUGCCACAAAGCUUGAGAGCAUCUUCGGAUGCAGAGGCGGCAGCCUUCGGUGGCGCGAUAGCGCCAACGUUCUCAACUAUGACACGCAAAACGCGUGCUCCGUUGAAUGGAGUUUAUCAUG

The variants in this data set derive from B1. Put plainly: polymerase ribozyme fitness, log enrichment relative to wild type (log ratio); higher = more active; in vitro selection for triplet polymerase activity. Summed up:
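Fitness measures genotype enrichment against wild-type enrichment on a logarithmic scale, with inverse-variance-weighted averaging of replicates. The logarithm is base 2, and genotypes were kept only with ≥10 input reads and ≥1 read per output in Illumina sequencing. The sequenced libraries came from one triplicate in vitro selection round, including frozen incubation at −7 °C, of PCR-built, transcribed mutant libraries of each subunit of a heterodimeric triplet polymerase ribozyme.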
In the case of C85G C96A G143C, the “polymerase ribozyme fitness (log ratio)” value is ≤ -4.2. In the case of G81C C87G G141C, the “polymerase ribozyme fitness (log ratio)” value is ≤ -4.2.

Consider G80U C93G A119U G141A A147U U148G, for which the “polymerase ribozyme fitness (log ratio)” value was ≤ -4.2.

Turning to C79U C87A C99U U101C, the “polymerase ribozyme fitness (log ratio)” value is ≤ -4.2.

Take U78A G86C A98U C99U C105G C123A C149U: the “polymerase ribozyme fitness (log ratio)” value was ≤ -4.2.

On to G83U C87U C93U G100U A107U, for which the “polymerase ribozyme fitness (log ratio)” value was ≤ -4.2. As for C85A A115G G143C, the figure is ≤ -4.2; as for C79G G94C, ≤ -4.2. As for C79A C99A G100A A113G, the figure is ≤ -4.2; as for C85U G133A U144C, ≤ -4.2; as for U82G A113C C114U A147G, ≤ -4.2. With U78G A106G, the “polymerase ribozyme fitness (log ratio)” value was ≤ -4.2.

Turning to G83C G88C G126C C129G U135A G141C, the “polymerase ribozyme fitness (log ratio)” value was ≤ -4.2. As for G80C C85G A106C U139G, the figure is ≤ -4.2; as for C85A C95G C96A U135C, ≤ -4.2; as for G86C C87U G152A, ≤ -4.2. As for G80A A98U U104C C105U A106C, the figure is ≤ -4.2. C87G C129A: the “polymerase ribozyme fitness (log ratio)” value is ≤ -4.2. As for U78A C85U, the figure is ≤ -4.2.

Take G83A G84U U135A A138C: the “polymerase ribozyme fitness (log ratio)” value was ≤ -4.2.

Turning to C87A C96G, the “polymerase ribozyme fitness (log ratio)” value was ≤ -4.2.

G81A G94U C96A U104C G143U U148A A150C: the “polymerase ribozyme fitness (log ratio)” value is ≤ -4.2.

For G83A U104A G117U G136A U148C, the “polymerase ribozyme fitness (log ratio)” value is ≤ -4.2. As for G84U G88C G117A C123U, the figure is ≤ -4.2; as for G84A A91G U127G, ≤ -4.2; as for G83C A110U U135A G141U, ≤ -4.2. As for G81A C108U G140C, the figure is ≤ -4.2; as for C85U C87G, ≤ -4.2; as for C85A C99G A142G, ≤ -4.2. As for C87A U135G G141U, the figure is ≤ -4.2.

Regarding C87G C118A, the “polymerase ribozyme fitness (log ratio)” value is ≤ -4.2. With C87G C118G, the “polymerase ribozyme fitness (log ratio)” value was ≤ -4.2. As for C85A A91U C96U A97U C105A C123U A147G, the figure is ≤ -4.2; as for G86U G92U C105G, ≤ -4.2; as for C87G G100C U139C C149G, ≤ -4.2. Regarding G80U C85U G92A A98G C149A, the “polymerase ribozyme fitness (log ratio)” value was ≤ -4.2. As for C87A A137C, the figure is ≤ -4.2.

In the case of G86A G92C C105G C132A A137G, the “polymerase ribozyme fitness (log ratio)” value is ≤ -4.2. As for C87G A89U U90G A150G, the figure is ≤ -4.2; as for G86C U104G, ≤ -4.2; as for C79U C96A C129A G141A, ≤ -4.2.

As to G80A A98G C105A C118G A147C, the “polymerase ribozyme fitness (log ratio)” value is ≤ -4.2.

Regarding G83U C105G C131U A142C, the “polymerase ribozyme fitness (log ratio)” value is ≤ -4.2. As for U82A G86U C95U C96U A106C C131G, the figure is ≤ -4.2; as for C79G G84A U134G, ≤ -4.2. As to U78G G94A A97U, the “polymerase ribozyme fitness (log ratio)” value was ≤ -4.2. As for C87G C95U A107G, the figure is ≤ -4.2. As for C85A C93A, the figure is ≤ -4.2; as for C79A G84C, ≤ -4.2. As for G83A G92C G112U A113U C114A C118G, the figure is ≤ -4.2; as for C79A C87A G88A A115G A120U G141U, ≤ -4.2.

For G83A A107G G133U A137G, the “polymerase ribozyme fitness (log ratio)” value is ≤ -4.2. As for C87A U102A G141A, the figure is ≤ -4.2. As for G83U C93U U127C U144C, the figure is ≤ -4.2; as for G86U U90G G143A, ≤ -4.2; as for C85G A106U A137C A138C U148A, ≤ -4.2.

In the case of G86U A91C U104C U111C A115U C118A, the “polymerase ribozyme fitness (log ratio)” value is ≤ -4.2. C87G U145A: the “polymerase ribozyme fitness (log ratio)” value is ≤ -4.2. G86A U90A A138G U151G: the “polymerase ribozyme fitness (log ratio)” value was ≤ -4.2.

For G86C C103G A120U, the “polymerase ribozyme fitness (log ratio)” value was ≤ -4.2. As for G83A C87G A89G, the figure is ≤ -4.2; as for C85U A138C, ≤ -4.2. As for C87G U144C A150U, the figure is ≤ -4.2; as for C85A G88C C103G A110C, ≤ -4.2; as for U78G A119C A137C G152U, ≤ -4.2. As for C79U A91U A122G U134C U135A U148A, the figure is ≤ -4.2; as for C87A G128A U135C, ≤ -4.2; as for U78G C103A U148C, ≤ -4.2. Regarding G80C G100A A115U G136C U139G, the “polymerase ribozyme fitness (log ratio)” value was ≤ -4.2. On to G86U U104G C125U, for which the “polymerase ribozyme fitness (log ratio)” value was ≤ -4.2. As for G84U A107U G140A, the “polymerase ribozyme fitness (log ratio)” value is ≤ -4.2.

Regarding G88A A98G U102C A115C C116A, the “polymerase ribozyme fitness (log ratio)” value was ≤ -4.2. As for C87G G100A C116U, the figure is ≤ -4.2; as for C87A G124C, ≤ -4.2; as for C87G A119C, ≤ -4.2. As for C79U U102A A107C C149A, the figure is ≤ -4.2; as for C87A C95A C96G A106U, ≤ -4.2; as for C85G C95A G100A A110C, ≤ -4.2. As for C87G G140U, the figure is ≤ -4.2; as for G84A A110G G136A A147C, ≤ -4.2; as for U82G C93G C96A, ≤ -4.2.

As to G86A C105A C116G C125G, the “polymerase ribozyme fitness (log ratio)” value is ≤ -4.2. As for C85G G100U, the figure is ≤ -4.2.

For the origin of these results see the RNAGym collection of RNA variant scans (doi:10.1073/pnas.2313332121).
